Test results published in PubChem BioAssay AID1671194 (National Center for Advancing Translational Sciences (NCATS), 2021).
The whole screen tested about 140,000 compounds, of which about 240 (0.17%) were called active. The inconclusive results got no clear call from the source; some entries with a clear call stand among them for comparison. Calls come from the whole dose curve; as a rule, active = well fitted inhibition curve with a large enough effect; inconclusive = small, poorly fitted or top-dose-only effect; inactive = no such curve, though single readings can be large or run the other way. Potencies of inconclusive entries are doubtful fits and often do not repeat.

experiment: Primary qHTS assay for inhibitors of alpha-synuclein gene (SNCA) expression; settings: HEK-293 SNCA-luciferase knock-in, luminescence, 24 h; activity change, negative = inhibition: at 57.2 µM (top of the series) unless noted; note: nearly all actives have a fitted effect of over 45% in size;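 for activity change, negative = inhibition: plate controls were DMSO cells for no effect and cell-free wells for full effect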
Potency is the fitted concentration of half-maximal effect; tags give direction and shape of the fitted curve.

| SMILES | Potency | activity change, negative = inhibition |
| --- | --- | --- |
| C=C1C(=O)O[C@@H]2[C@H]3O[C@]3(C)CCC=C(C)CC[C@@H]12 | inconclusive: 35.5 µM [inhibitor, single point] |  |
| COC(=O)c1ccc(NC(=O)CC2Nc3cc(C)c(C)cc3NC2=O)cc1 (stereo not given) | inconclusive: 39.8 µM [inhibitor, single point] |  |
| CNC(=O)[C@@H]1C[C@@H](n2cc(C(C)(C)NC(=O)c3cccc(Cl)c3)nn2)CN1 | inconclusive: 12.6 µM [inhibitor, partial curve] |  |
| O=C(CC1CC1)N1CC(F)(F)C[C@H]1c1nc(-c2ccncc2)no1 | inconclusive: 1 µM [inhibitor, single point] |  |
| COCCn1c(=O)c(C(=O)NCc2cccs2)nc2cccnc21 |  | inactive: -8.64% [at 87.6 µM] |
| CCNc1nccc(N2CCC(CC(=O)N3CCN(c4ccccc4F)CC3)CC2)n1 | inconclusive: 28.2 µM [inhibitor, single point] |  |
| N#Cc1ccc(CN2CCC3(CC2)CNC(=O)c2ccccc2O3)cc1 | inconclusive: 39.8 µM [inhibitor, single point] |  |
| O=C(c1nnc(CN2CCN(c3ccccn3)CC2)n1-c1ccccc1)N1CCC[C@@H]1c1nc2ccccc2[nH]1 |  | inactive: 0.442% |
| Cc1ccc(NC(=O)N2CCc3c(C(=O)NC(C)C)cccc32)cc1 | inconclusive: 1 µM [inhibitor, full curve, poor fit] |  |
| Cc1noc2c(NCC3CCOCC3)cc(-c3ccc(F)cc3)nc12 | inconclusive: 11.2 µM [inhibitor, single point] |  |
| O=C(NCc1cccc(F)c1)c1cnc2c(c1)N(Cc1ccccc1)CCC2 | inconclusive: 31.6 µM [inhibitor, single point] |  |
| COc1cccc(CNC(=O)Cn2c(-c3ccc(F)cc3)nc(C)cc2=O)c1 | inconclusive: 10 µM [inhibitor, partial curve] |  |
| CCOC(=O)CSc1nc2cc3c(cc2c(=O)n1CCCC(=O)NCCc1ccc(OC)c(OC)c1)OCO3 | inconclusive: 3.98 µM [inhibitor, full curve, poor fit] |  |
| COc1cccc(-c2ccc3ncn(-c4ccc(F)cc4F)c(=O)c3n2)c1 |  | inactive: 14% [at 87.6 µM] |
| CCc1cccc(NS(=O)(=O)c2ccc3c(c2)n(C)c(=O)c(=O)n3C)c1 | inconclusive: 3.55 µM [inhibitor, single point] |  |
| O=C(CC1CCCN(c2cnn(CC3CC3)c(=O)c2)C1)NCc1ccccc1 (stereo not given) | inconclusive: 25.1 µM [inhibitor, partial curve, poor fit] |  |
| O=C1CCN(S(=O)(=O)c2ccccc2)CCCC(C(=O)NCCc2ccccc2)CCN1 (stereo not given) |  | inactive: 16.3% |
| O=C(Nc1nn(CC(F)(F)F)c2cccc(Oc3cccnc3)c12)c1cocn1 |  | inactive: 28.7% |
| COc1cccc(-c2ccc(C(=O)N3CCC(NC(=O)c4ccc(C)cc4)CC3)cc2)c1 |  | inactive: -19.7% |
| Cc1nc(-c2ccccc2)n(Cc2ccc(F)cc2Cl)c(=O)c1CCO | inconclusive: 39.8 µM [inhibitor, partial curve, poor fit] |  |

| SMILES | Potency | activity change, negative = inhibition |
| --- | --- | --- |
| Cc1ccc(Cl)cc1-n1ncc2c(NCCCc3ccccc3)ncnc21 | inconclusive: 35.5 µM [inhibitor, single point] |  |
| Cc1c(Nc2nc3ccccc3n3c(C)nnc23)cccc1C(=O)O | inconclusive: 4.47 µM [inhibitor, partial curve, poor fit] |  |
| CC(C)CNc1ccc2c(n1)C(C)(C(=O)NC1COC1)CN(Cc1ccccc1)C2 (stereo not given) | inconclusive: 2.82 µM [inhibitor, full curve, poor fit] |  |
| CCOc1ccc(N2C(=O)c3n[nH]c(-c4cccs4)c3C2c2cccc(F)c2)cc1 (stereo not given) | inconclusive: 31.6 µM [inhibitor, partial curve, poor fit] |  |
| O=C(NC[C@H]1COCc2nc3cccnc3n21)Nc1ccccc1 | inconclusive: 7.94 µM [inhibitor, single point] |  |
| Cc1ccc2nc(C(=O)NCc3nncn3CCc3ccccc3)cn2c1 |  | inactive: -2.1% |
| O=C(c1cccc(Cl)c1)N1CCC(c2n[nH]c(=O)n2-c2ccccc2)CC1 |  | inactive: -21.1% |
| CN(C)S(=O)(=O)N1CCC(N2C(=O)C3(CCCCC3)C2c2ccccc2)CC1 (stereo not given) | inconclusive: 39.8 µM [inhibitor, partial curve, poor fit] |  |
| CCc1ccc(S(=O)(=O)N2CCC(n3cnnc3C3CC3)CC2)cc1 | inconclusive: 39.8 µM [inhibitor, single point] |  |
| C[C@]1(CO)C2CC[C@@H](O)[C@@H](CC(=O)N3CCC[C@H]3CO)[C@]2(C)CC[C@H]1OC(=O)Nc1cccc(F)c1 (stereo not given in full) | inconclusive: 15.8 µM [inhibitor, single point] |  |
| Fc1ccc(-n2ncc3c(N4CCCCCC4)ncnc32)cc1 |  | inactive: -72.5% |
| Cc1ccc(N2C(=O)N(Cc3cc(=O)n4ccccc4n3)c3ccccc3S2(=O)=O)cc1Cl | inconclusive: 31.6 µM [inhibitor, partial curve, poor fit] |  |
| Cc1ccc(S(=O)(=O)Cc2noc([C@@H]3C[C@@H](O)CN3Cc3cccc(OC(F)(F)F)c3)n2)cc1 | inconclusive: 39.8 µM [inhibitor, single point] |  |
| COc1ccc(S(=O)(=O)NCCNc2cc(C)nc3ccnn23)cc1 |  | inactive: 0.755% |
| O=C(CC1CCCCC1)N1CCn2c(nnc2[C@@H]2C[C@@H](O)CN2Cc2ccccc2)C1 | inconclusive: 39.8 µM [inhibitor, single point] |  |
| Cc1ccc(C(=O)N2CCC3(CC2)COc2ccccc2C(=O)N3)cc1 |  | inactive: 24.8% |
| Cc1nc2cnc(Oc3cccc(Cl)c3)nc2n(CCc2ccccc2)c1=O | inconclusive: 14.1 µM [inhibitor, partial curve] |  |
| O=C(O)c1ccc2nc(-c3cc4cccc(O)c4oc3=O)[nH]c2c1 | inconclusive: 1 µM [inhibitor, full curve, poor fit] |  |
| Cc1cnn(C)c1C(=O)Nc1cc(Nc2ccc3c(C=Cc4ccccn4)n[nH]c3c2)ccc1F | inconclusive: 24.1 µM [inhibitor, single point] |  |
| CCc1ccccc1Nc1nn2c(=O)c3ccc(C(=O)NCc4ccccc4OC)cc3nc2s1 | inconclusive: 7.08 µM [inhibitor, single point] |  |
